Measured values as given in publication PMC4336329 (PLoS ONE, 2015).
Screen size: about 310,000 compounds; about 14,000 (4.5%) showed an effect of 50% or more. The effect is printed as a negative number. The list shows a part of the results.

Target: human ether-à-go-go-related gene (hERG) potassium channel (human, UniProt Q12809)
Assay: primary screen, population patch clamp on CHO cells stably expressing hERG
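Note: peak tail current of the secondary pulse compared with the same well before compound.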

Sequence of human ether-à-go-go-related gene (hERG) potassium channel (Q12809 whole entry, looked up): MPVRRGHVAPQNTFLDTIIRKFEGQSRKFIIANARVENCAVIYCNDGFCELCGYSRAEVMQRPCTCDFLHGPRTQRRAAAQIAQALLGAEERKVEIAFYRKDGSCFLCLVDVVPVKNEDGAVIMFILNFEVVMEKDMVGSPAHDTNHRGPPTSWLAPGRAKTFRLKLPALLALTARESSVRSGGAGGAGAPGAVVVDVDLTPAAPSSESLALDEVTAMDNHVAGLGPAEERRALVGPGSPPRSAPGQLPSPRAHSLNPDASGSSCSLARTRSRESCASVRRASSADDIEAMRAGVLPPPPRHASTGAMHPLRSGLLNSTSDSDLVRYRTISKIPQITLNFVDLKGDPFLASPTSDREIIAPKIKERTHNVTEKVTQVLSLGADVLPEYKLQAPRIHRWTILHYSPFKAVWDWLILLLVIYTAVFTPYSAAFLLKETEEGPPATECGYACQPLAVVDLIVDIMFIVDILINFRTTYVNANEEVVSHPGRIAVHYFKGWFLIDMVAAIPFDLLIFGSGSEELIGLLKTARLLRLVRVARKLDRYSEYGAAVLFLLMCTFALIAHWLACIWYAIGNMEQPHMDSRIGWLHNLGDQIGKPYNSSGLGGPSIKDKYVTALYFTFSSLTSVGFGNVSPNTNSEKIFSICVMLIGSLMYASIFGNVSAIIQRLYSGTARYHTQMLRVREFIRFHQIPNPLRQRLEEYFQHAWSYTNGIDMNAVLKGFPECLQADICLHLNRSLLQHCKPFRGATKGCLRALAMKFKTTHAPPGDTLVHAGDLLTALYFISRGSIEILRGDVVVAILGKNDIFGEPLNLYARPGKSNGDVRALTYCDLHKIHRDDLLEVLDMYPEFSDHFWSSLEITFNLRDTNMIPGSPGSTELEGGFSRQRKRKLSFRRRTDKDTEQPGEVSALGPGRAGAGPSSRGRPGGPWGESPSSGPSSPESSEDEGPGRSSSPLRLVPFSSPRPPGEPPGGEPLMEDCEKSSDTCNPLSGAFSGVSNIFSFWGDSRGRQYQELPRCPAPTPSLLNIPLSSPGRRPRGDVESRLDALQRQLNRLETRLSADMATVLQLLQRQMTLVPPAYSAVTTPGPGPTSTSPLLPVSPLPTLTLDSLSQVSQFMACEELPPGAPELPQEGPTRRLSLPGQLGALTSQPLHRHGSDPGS

SMILES | hERG current change (%, negative = inhibition) at 10uM [%]
O=C(Nc1cccc(Cl)c1)c1cncn1-c1ccc(F)cc1 | -68.1
O=C(Nc1ccc(F)cc1)C1CCCN1S(=O)(=O)c1ccc(Br)cc1 (centres unmarked) | 8.27
Cc1ccc(S(=O)(=O)N2CCN(c3ncccn3)CC2)cc1C | 13.9
Cc1ccc(O)c(C(CC(=O)NCc2cccnc2)c2ccccc2)c1 (centres unmarked) | -7.21
CC(=O)c1ccc2cccc3c2c1N=CN3C | -2.94
O=[N+]([O-])c1ccc(N/N=C/c2cn(-c3ccccc3)nc2-c2ccccc2)cc1 | 21.9
CN(C)S(=O)(=O)c1cccc(C(=O)Nc2ccccc2Cl)c1 | 0.87
COc1cccc(CNc2ccc(S(N)(=O)=O)cc2)c1OCc1ccccc1F | -3.75
Cn1c(SCC(=O)NCc2ccc(F)cc2)ncc(C(=O)Nc2ccccc2)c1=O | -10.1
CS(=O)(=O)O.Nc1ncnc2c1ncn2C1CCCC1 | -16
O=C(NC1CCN(C(=S)NCCc2ccccc2)CC1)C1CCCCC1 | 3.67
Cc1ccc(-c2n[nH]c3c2CCC3)cc1 | -0.775
Nc1ccc2c(c1)sc1ccccc12 | 7.37
CCOC(=O)CC/C(C)=N\N=C1\SC(CC(=O)O)C(=O)N1c1ccccc1 (centres unmarked) | 4.21
C/C(=N\N=C\c1ccccc1)c1nnn(-c2nonc2N)c1C | 7.82
CCCC(=O)NCC(c1cccs1)S(=O)(=O)c1ccc(C)cc1 (centres unmarked) | 9.55
Cc1cc(Br)ccc1NC(=O)CN(C)C(=O)c1ccc2ccccc2n1 | -32.9
Cc1ccc(-c2cn3cc([N+](=O)[O-])ccc3n2)cc1 | -10.1
CC(=O)c1cccc(NC(=O)C(OC(=O)/C=C/c2ccc3c(c2)OCO3)c2ccccc2)c1 (centres unmarked) | -4.68
O=c1ccc2cc(S(=O)(=O)NCc3ccccc3)ccc2[nH]1 | 4.76
Cc1c(Cl)cccc1NC(=O)[C@@]1(CC(=O)O)CC(/C=C/c2ccccc2)=NO1 | 10.5
COc1cc(/C=C/C(=O)O)cc(S(=O)(=O)Nc2cccc(SC)c2)c1OC | 23.1

SMILES | hERG current change (%, negative = inhibition) at 10uM [%]
CCCCNS(=O)(=O)c1ccc(S(=O)(=O)NCc2ccncc2)cc1 | -9.06
COc1ccc(S(=O)(=O)N2CCC(C(=O)N3CCCCCC3)CC2)cc1 | -3.04
c1cc2nnnn2nc1N1CCCCC1 | 1.35
CC1CCCC(C)N1C(=O)COC(=O)c1ccc[nH]c1=O (centres unmarked) | 3.02
S=c1[nH]nc(C2CCCCC2)n1Cc1ccccc1 | -23.1
O=C(CNC(=O)c1ccccc1)NCC(=O)OCC(=O)c1ccc([N+](=O)[O-])cc1 | 8.63
CC1(C)CN(c2ccc(C(=O)c3ccccc3)cc2)C1=O | -0.622
Cc1ccccc1-n1c(-c2ccco2)n[nH]c1=S | 22.2
Cc1noc(C)c1COc1cccc(C(=O)OCCOc2ccc(F)cc2)c1 | 1.22
O=C(Nc1ccccc1F)C(c1ccccc1)c1ccccc1 | 7.77
Cc1cc(C)cc(NC(=O)COC(=O)c2cc(C)oc2C)c1 | 7.5
Cc1ccc(NC(=O)C2CCN(c3ncnc4c3nc3n4CCCCC3)CC2)cc1Cl | 3.4
COc1ccc(-n2c(C)cc(SC)c(C(C)=O)c2=S)cc1 | -10.9
Br.CN(CC(O)C[NH+]1CCOCC1)S(=O)(=O)[O-] (centres unmarked) | 17
Cc1nnc(SCC(=O)Nc2ccc(S(=O)(=O)N3CCCC3)cc2)n1N | 13
COC(=O)c1cc(=O)c2cccc(OC)c2[nH]1 | -0.0736
Cc1ccc(C(=O)NNC(=O)c2cccs2)cc1 | 14.1
Cc1noc(C)c1C(=O)N(CC(=O)Nc1ccc(Cl)c(C(F)(F)F)c1)Cc1ccco1 | 2.01
COc1ccc2oc(C(=O)OCC(=O)Nc3ccc(NC(C)=O)cc3)c(C)c2c1 | 19.6
CCn1c(SCC(=O)Nc2nccs2)nnc1-c1ccc(S(=O)(=O)N2CCCCCC2)cc1 | -11.6
O=C(Nc1ccc(Br)c2cccnc12)c1ccc(Cn2cc([N+](=O)[O-])cn2)o1 | -0.0567
COc1cc(N/N=C/c2ccc(N(C)C)cc2)ncn1 | 12.9
